# Measurements reported in the supplement of paper PMC9334596.
# Where “and” joins values, the source holds several entries; their conditions need not be identical. Equal entries are not always repeated. Whole data set: some 5,300 compounds, median “PER2::LUC luminescence relative to vehicle control” near 0.96, cut for the highest 2% near 1.3. Some of the results follow.
# System: mPer2Luc MEF
# Test: PER2::LUC luminescence relative to vehicle control (fold of vehicle); higher = higher PER2::LUC reporter signal
# Settings: 10 µM
# In short: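 The value is PER2::LUC luminescence expressed as fold of vehicle control. Mouse embryonic fibroblasts carrying the mPer2Luc reporter were seeded at ~3000 cells per well in 384-well plates and grown in DMEM with 10% FBS at 37 °C and 5% CO2. Compounds from commercial libraries were added at 10 μM 48 h after seeding, and luminescence was read with the ONE-Glo luciferase assay system 24 h and 30 h after treatment, followed by an alamarBlue viability assay.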
smiles,measurement,setting,value
CCN1C[C@]2(COC)CC[C@H](O)[C@@]34C5C[C@@H]6[C@@H](OC)C[C@](O)(C(CC23)C14)C5[C@H]6OC(C)=O (some centres undefined),PER2::LUC luminescence,time after treatment 24 h,1.01
same,PER2::LUC luminescence,time after treatment 30 h,1.05
C#C[C@]1(O)C=C[C@H]2[C@@H]3CCC4=CC(=O)CC[C@@H]4[C@H]3CC[C@@]21CC,PER2::LUC luminescence,time after treatment 24 h,0.824
same,PER2::LUC luminescence,time after treatment 30 h,1.05
OC[C@@H](O)[C@H]1O[C@@H]2O[C@H](C(Cl)(Cl)Cl)O[C@@H]2[C@H]1O,PER2::LUC luminescence,time after treatment 24 h,1.15 and 0.879
same,PER2::LUC luminescence,time after treatment 30 h,1.26 and 0.923
CC(=O)OC12COC1CC(O)C1(C)C(=O)C(O)C3=C(C)C(O)CC(O)(C(OC(=O)c4ccccc4)C21)C3(C)C (centres undefined),PER2::LUC luminescence,time after treatment 24 h,0.878
same,PER2::LUC luminescence,time after treatment 30 h,0.843
O=C(O)CCC1NCC2CC1CN1CCCCC21 (centres undefined),PER2::LUC luminescence,time after treatment 24 h,0.935
same,PER2::LUC luminescence,time after treatment 30 h,0.866
C[N+]12CCC(CC1)C(OC(=O)C(O)(c1ccccc1)c1ccccc1)C2 (centres undefined),PER2::LUC luminescence,time after treatment 24 h,0.956
same,PER2::LUC luminescence,time after treatment 30 h,0.904
CN1C(=O)CN=C(c2ccccc2)c2cc([N+](=O)[O-])ccc21,PER2::LUC luminescence,time after treatment 24 h,0.98
same,PER2::LUC luminescence,time after treatment 30 h,0.927
CC(=O)[C@H]1CC[C@H]2[C@@H]3CC[C@@H]4C[C@H](O)CC[C@]4(C)[C@H]3CC[C@]12C,PER2::LUC luminescence,time after treatment 24 h,0.987
same,PER2::LUC luminescence,time after treatment 30 h,1.06
COc1cc2c(cc1OC)[C@@H]1C(=O)c3ccc4oc(C(C)C)cc4c3O[C@@H]1CO2,PER2::LUC luminescence,time after treatment 24 h,0.182
same,PER2::LUC luminescence,time after treatment 30 h,0.202
CC(CC(C(N)=O)(c1ccccc1)c1ccccc1)N(C)C (centres undefined),PER2::LUC luminescence,time after treatment 24 h,0.891
same,PER2::LUC luminescence,time after treatment 30 h,0.929
C[C@@]12N[C@@H](Cc3ccccc31)c1ccccc12,PER2::LUC luminescence,time after treatment 24 h,1.14
same,PER2::LUC luminescence,time after treatment 30 h,1
O=C1CCC[C@@H]2[C@H]3C[C@@H](CN12)[C@@H]1CCCCN1C3.[O-][Cl+3]([O-])([O-])O,PER2::LUC luminescence,time after treatment 24 h,1.01
same,PER2::LUC luminescence,time after treatment 30 h,1.05
C[C@]12CC[C@H]3[C@@H](CCC4=CC(=O)CC[C@@]43C)[C@@H]1CC[C@H]2O,PER2::LUC luminescence,time after treatment 24 h,0.954
same,PER2::LUC luminescence,time after treatment 30 h,0.889
C#CCN[C@H](C)Cc1ccccc1,PER2::LUC luminescence,time after treatment 24 h,1.01
same,PER2::LUC luminescence,time after treatment 30 h,0.818
CCCN(CCC)[C@@H]1CCc2cccc(O)c2C1,PER2::LUC luminescence,time after treatment 24 h,0.938
same,PER2::LUC luminescence,time after treatment 30 h,0.816
C[C@H]1C(=O)O[C@@H]2CCN3CC=C(COC(=O)[C@](C)(O)[C@]1(C)O)[C@H]23,PER2::LUC luminescence,time after treatment 24 h,0.965
same,PER2::LUC luminescence,time after treatment 30 h,0.929
CCCN1C[C@H](C)N([C@H](c2ccc(C(=O)N(CC)CC)cc2)c2cccc(OC)c2)C[C@H]1C,PER2::LUC luminescence,time after treatment 24 h,0.894
same,PER2::LUC luminescence,time after treatment 30 h,0.899
COC[C@]12CN(C=O)[C@@H]3[C@@H]4[C@H](OC)[C@H]1[C@@]3([C@@H](OC)C[C@H]2O)[C@@H]1C[C@@]2(O)[C@H](OC(=O)c3ccccc3)[C@@H]1[C@]4(OC(C)=O)[C@@H](O)[C@@H]2OC,PER2::LUC luminescence,time after treatment 24 h,1.04
same,PER2::LUC luminescence,time after treatment 30 h,0.968
COC(=O)C(c1ccccc1)C1CCCCN1 (centres undefined),PER2::LUC luminescence,time after treatment 24 h,0.664
same,PER2::LUC luminescence,time after treatment 30 h,0.93
C=C(C)[C@@H]1[C@H]2OC(=O)[C@@H]1[C@]1(O)C[C@H]3OC34C(=O)O[C@H]2[C@@]41C.CC(C)(O)[C@@H]1[C@H]2OC(=O)[C@@H]1[C@]1(O)C[C@H]3OC34C(=O)O[C@H]2[C@@]41C (some centres undefined),PER2::LUC luminescence,time after treatment 24 h,0.876
same,PER2::LUC luminescence,time after treatment 30 h,1.08
CC(=O)OCC1=C(C(=O)O)N2C(=O)[C@@H](N)[C@H]2SC1,PER2::LUC luminescence,time after treatment 24 h,0.861
same,PER2::LUC luminescence,time after treatment 30 h,1.02
C[C@@H](NC(=O)[C@@H](N)Cc1ccc(O)cc1)C(=O)N[C@@H](Cc1ccccc1)C(=O)NCC(=O)N[C@@H](Cc1ccc(O)cc1)C(=O)N1CCC[C@H]1C(=O)N[C@@H](CO)C(N)=O,PER2::LUC luminescence,time after treatment 24 h,1.07
same,PER2::LUC luminescence,time after treatment 30 h,0.929
C/C=C(/C)C(=O)O[C@H]1CC[C@@]2(C)[C@@H]3CC[C@H]4[C@]5(O)C[C@H](O)[C@@]6(O)[C@@H](CN7C[C@@H](C)CC[C@H]7[C@@]6(C)O)[C@]5(O)C[C@]42O[C@]13O,PER2::LUC luminescence,time after treatment 24 h,1.01
same,PER2::LUC luminescence,time after treatment 30 h,0.994
CO[C@]12C[C@@H](COC(=O)c3cncc(Br)c3)CN(C)[C@@H]1Cc1cn(C)c3cccc2c13,PER2::LUC luminescence,time after treatment 24 h,0.883
same,PER2::LUC luminescence,time after treatment 30 h,0.851
C=C[C@]12CN(C)[C@@H]3[C@H]4CO[C@H](C[C@H]41)[C@]1(C(=O)Nc4ccccc41)[C@@H]32,PER2::LUC luminescence,time after treatment 24 h,1.06
same,PER2::LUC luminescence,time after treatment 30 h,1.1
CC(C)NP(=O)(NC(C)C)OP(=O)(NC(C)C)NC(C)C,PER2::LUC luminescence,time after treatment 24 h,0.962
same,PER2::LUC luminescence,time after treatment 30 h,0.904
C=CCc1ccccc1OCC(O)CNC1(C)CCC(C(C)(C)NC(=O)CBr)CC1 (centres undefined),PER2::LUC luminescence,time after treatment 24 h,0.631
same,PER2::LUC luminescence,time after treatment 30 h,0.544
O=S(=O)(F)Cc1ccccc1,PER2::LUC luminescence,time after treatment 24 h,1.12
same,PER2::LUC luminescence,time after treatment 30 h,1.09
CSC(=S)NCc1c[nH]c2ccccc12,PER2::LUC luminescence,time after treatment 24 h,0.994
same,PER2::LUC luminescence,time after treatment 30 h,0.896
COc1cc([C@@H]2c3cc4c(c(O)c3C[C@H]3COC(=O)[C@@H]32)OCO4)cc(OC)c1OC,PER2::LUC luminescence,time after treatment 24 h,0.965
same,PER2::LUC luminescence,time after treatment 30 h,0.959
CC(=O)NBr,PER2::LUC luminescence,time after treatment 24 h,0.953
same,PER2::LUC luminescence,time after treatment 30 h,0.925
O=c1[nH]c(=O)n(Cl)c(=O)n1Cl,PER2::LUC luminescence,time after treatment 24 h,1.01
same,PER2::LUC luminescence,time after treatment 30 h,0.853
"C[C@H](NC(=O)Cc1cc(F)cc(F)c1)C(=O)N[C@H]1N=C(c2ccccc2)c2ccccc2N(C)C1=O [Gamma-SECRETASE INHIBITOR XXI, COMPOUND E]",PER2::LUC luminescence,time after treatment 24 h,0.924
same,PER2::LUC luminescence,time after treatment 30 h,0.948
NC(=O)CN1CCCC1=O,PER2::LUC luminescence,time after treatment 24 h,0.842
same,PER2::LUC luminescence,time after treatment 30 h,1.1
NCc1cc(O)no1,PER2::LUC luminescence,time after treatment 24 h,0.944 and 0.875
same,PER2::LUC luminescence,time after treatment 30 h,1.03 and 0.962
CC(=O)OC1CCC23C(=O)OC45CCC(C6=CC(=O)OC6)C4(C)CCC2C5CCC3(O)C1 (centres undefined),PER2::LUC luminescence,time after treatment 24 h,1.01
same,PER2::LUC luminescence,time after treatment 30 h,1.03
Oc1ccc2c3c1O[C@H]1c4oc5ccccc5c4C[C@@]4(O)[C@@H](C2)N(CC2CC2)CC[C@]314,PER2::LUC luminescence,time after treatment 24 h,0.925 and 0.898
same,PER2::LUC luminescence,time after treatment 30 h,1.02 and 0.908
